# Results as given in PMC5515408.
# The other results are listed elsewhere or left out. At the low end of the ranking, values are background and their order means little.
# Target: MAX:MAX (p21) (UniProt P61244-2)
# Test: protein-binding microarray (anti-MAX antibody)
# Conditions: PBM: 15 mM Tris-HCl pH 7.5, 100 mM KCl, 0.075% NP40, 7.5 mM beta-mercaptoethanol, 375 ng/ul BSA, 8 ng/ul poly(dA-dT):(dA-dT), 550 ng complex, 60 min, room …; high values mean tight binding; double strand, one strand shown; sequences stand for … in CCGGC…TTAATAGCTAAGATTACTATATCGACG
row,Sequence,binding signal (log2 normalized fluorescence)
1,TGACGAGCTGTA,-0.604
2,TGAGTCCCCGTA,-0.873
3,TGAAAGCAAGTA,-0.0584
4,TGAACATGTGTA,2.94
5,TGACAGGGGGTA,1.72
6,TGAGCGCCAGTA,-0.611
7,TGAATCCGTGTA,-0.163
8,TGAACAATCGTA,-0.744
9,TGAAAGGGTGTA,0.113
10,TGATGAATAGTA,-0.405
11,TGATAGAGCGTA,-0.987
12,TGAAGGACTGTA,-0.606
13,TGAGCCAAAGTA,-1.15
14,TGAGGTGGAGTA,-0.433
15,TGAGTCATTGTA,-0.599
16,TGATAGCGCGTA,-0.144
17,TGACAAGCAGTA,-0.299
18,TGACTGATTGTA,-0.283
19,TGTCACGTGATA,3.2
20,TGAACAAATGTA,0.00639
21,TGACTAAACGTA,-0.587
22,TGATCAGCAGTA,-0.121
23,TGAGGACTAGTA,-1.02
24,TGACTCACCGTA,0.242

row,Sequence,binding signal (log2 normalized fluorescence)
1,TGAAATTTCGTA,-1.02
2,TGATACGTGGTG,1.24
3,GGACCCGTGGTA,2.46
4,TGAGCTACAGTA,-0.868
5,TGAGCCACTGTA,-0.778
6,TGATGTTAAGTA,-0.116
7,TGAGGCTAAGTA,-1.21
8,TGAGTCCCGGTA,-0.855
9,TGATTCTTAGTA,-1.16
10,TGATTCACAGTA,-0.775
11,TGAGCGCGTGTA,2.88
12,TGACGCGGGGTA,0.91
13,TGACTGCCAGTA,-0.338
14,TGACCGGGTGTA,0.197
15,TTACAGGTAGTA,-0.0209
16,TGAGCGACAGTA,-0.4
17,TGAGTTGGGGTA,-0.499
18,TGAATTAAGGTA,-0.965
19,TGAAGCCGCGTA,-0.834
20,TGAAAGTCTGTA,-0.78
21,TGAAGAGGTGTA,-0.378
22,TGAACCCTAGTA,-0.686
23,TGACCCCTAGTA,-0.464
24,TGATTGAGTGTA,-0.596

row,Sequence,binding signal (log2 normalized fluorescence)
1,TGATTATTGGTA,-0.994
2,TGATGTTCTGTA,-0.0796
3,TGACCTCTAGTA,-0.689
4,TGATATATGGTA,-0.755
5,GCACACGTGCTA,3.04
6,TGAGTCTGTGTA,-0.957
7,TGCCACGCGGTG,3.23
8,TGACACGGCTTA,0.66
9,TGAGGTACAGTA,-0.893
10,TGAGTAGTGGTA,-0.298
11,TGACGTTCGGTA,-0.219
12,TGATAGTCCGTA,-1.13
13,TGAACACTCGTA,0.0034
14,TGACCACCGGTA,0.83
15,TGAACACGTGTA,3.24
16,TGAATCGCAGTA,-0.846
17,TGAAACTTAGTA,-0.884
18,TGACTGGCCGTA,-0.589
19,TGACCCTAGGTA,-0.618
20,TGAGACTTGGTA,-1.15
21,TGAAGCGTGGTA,3.04
22,TGAGGAGACGTA,-0.678
23,TGAACGAGAGTA,-0.412
24,TGACCAGCTGTA,0.294

row,Sequence,binding signal (log2 normalized fluorescence)
1,TGAAATCAGGTA,-0.576
2,TGACCTAAAGTA,-0.586
3,TGACCACCTGTA,2.52
4,TGAAGAGCAGTA,-0.755
5,TGACACGAGTTA,2.78
6,TGACGTTGGGTA,-0.416
7,TGAAGGTTCGTA,-0.61
8,TGAAATGGGGTA,0.322
9,TGATTACGTGTA,0.238
10,TGACACGCCTTA,2.72
11,TGATAAAATGTA,-0.899
12,TGAGCCATTGTA,-0.773
13,TGAACACCAGTA,0.0132
14,GCACACTTGGTA,2.75
15,TGACTATGTGTA,-0.204
16,TGAATGGAGGTA,0.176
17,TGACGGCCTGTA,-0.00025
18,TGACCGAAGGTA,-0.41
19,TGAACCCTGGTA,-0.595
20,TGAGAAAAGGTA,-0.923
21,TGACCGTAGGTA,-0.615
22,TGAATCCATGTA,0.0473
23,TGATGTCAGGTA,-0.106
24,TGACAGCGGGTA,0.704

row,Sequence,binding signal (log2 normalized fluorescence)
1,TGAGAACACGTA,0.443
2,TGACCAGCCGTA,-0.437
3,TGAACTCTCGTA,-0.499
4,CGACATGTGGTG,3.43
5,TGATCCCCCGTA,-0.597
6,TGAGGAAAAGTA,-0.511
7,TGAGCGATTGTA,-0.93
8,AGATACGTGGTG,1.38
9,TGAGCTGCAGTA,0.0121
10,TGAAATCAAGTA,-0.702
11,TGACGCATGGTA,2.99
12,TGATAAAACGTA,-0.705
13,TGATGACGCGTA,0.0312
14,TGAACTCAAGTA,-0.476
15,GCCTAGTTGTGC,-0.921
16,AAACACGTTGTA,3.31
17,TGACATTGCGTA,0.358
18,TGAAACACAGTA,-0.00176
19,TAACACGTAGTA,1.92
20,TGAAGGGCCGTA,-0.515
21,AGACACTTAGTA,0.466
22,TGAATACAGGTA,-0.531
23,TGATTTGTTGTA,-1.32
24,TGACATAAGGTA,0.803

row,Sequence,binding signal (log2 normalized fluorescence)
1,TGATCAGATGTA,0.894
2,TGACGGGTAGTA,-0.586
3,TGAGGGGGCGTA,1.87
4,TGATGGCTTGTA,0.135
5,TGATATCGAGTA,-0.79
6,TGACGGCCAGTA,-0.778
7,TGACTTTTCGTA,-1.18
8,TGATTGAACGTA,-0.835
9,TGAGACGTCTTA,-0.793
10,TGAGGGATTGTA,-0.676
11,TGATTGGATGTA,-0.659
12,TGACGATAGGTA,-0.631
13,CGACACGCGGTA,2.86
14,TGAGCCTGCGTA,-0.0594
15,TGATTAAGAGTA,-0.997
16,TGAGACTACGTA,-0.643
17,TGACTCATCGTA,-0.191
18,TGATGAACCGTA,-0.499
19,TGACCCCGTGTA,2.72
20,TGATTTTCAGTA,-1.29
21,TGATCCACAGTA,-0.304
22,TGACGGGCTGTA,-0.169
23,TGAAGGAGCGTA,-0.583
24,TGAAGGGGAGTA,-0.038

row,Sequence,binding signal (log2 normalized fluorescence)
1,TGAAAGGCGGTA,-0.124
2,TGACTGGCAGTA,0.00633
3,TGAATCTAAGTA,-1.07
4,TGAAACGAAGTA,-0.434
5,TGACCGCGAGTA,1.06
6,TGACTCTTCGTA,-0.649
7,TGAGTCAGAGTA,-0.392
8,TGACCTCACGTA,0.812
9,TGAGGCGTAGTA,-0.65
10,AGACGCGTGGTA,3.26
11,TGATGCGGGGTA,0.595
12,TGATTATCAGTA,-0.45
13,TGACCACAGGTA,0.632
14,TGAGGGTACGTA,-0.549
15,TGAAGGAAGGTA,-0.568
16,TGAACGTTGGTA,0.152
17,TGAAGATCCGTA,-0.871
18,TGATACGCAGTA,-0.832
19,TGAGTGTCAGTA,-0.0924
20,TGAAAATCAGTA,-0.993
21,TGACGACCTGTA,-0.051
22,TGACCATTAGTA,-0.271
23,TGAGACCAGGTA,-0.704
24,AAACACGTAGTA,2.6

row,Sequence,binding signal (log2 normalized fluorescence)
1,GTACCCGTGGTA,2.98
2,TGACATGTGGTA,2.89
3,TGAGCTCAAGTA,-0.665
4,TGAGTTCCAGTA,-1.19
5,TGACTCAGTGTA,-0.523
6,TGAATGTACGTA,0.22
7,TGATTAGCCGTA,-1.32
8,TGACAAATTGTA,-0.694
9,TGAGATTATGTA,-0.948
10,AGTCACGTGGTA,3.18
11,TGACTCATGGTA,2.31
12,TGAAAGGAGGTA,-0.166
13,TGAATCCCAGTA,-0.681
14,TGAGCCTACGTA,-1.06
15,TGATTGTGTGTA,0.16
16,TGAAACGTGCTA,2.99
17,TGACCGTCGGTA,-0.357
18,TGACCTAATGTA,-0.229
19,TGAACACCGGTA,0.472
20,TGATATTAGGTA,-1.08
21,TGAGACTAGGTA,-1.05
22,TGAGCAAAAGTA,-1.03
23,TGAGTTGACGTA,-0.355
24,TGACTAAAGGTA,-0.935

row,Sequence,binding signal (log2 normalized fluorescence)
1,TGAATTGAAGTA,-0.794
2,TGATTACTCGTA,-0.895
3,TGACAGCGTGTA,2.9
4,TGAGTTAGGGTA,-0.799
5,TGAGTATCCGTA,-1.25
6,TGAACCAAGGTA,-0.369
7,TGAGGGTAGGTA,-0.702
8,TGAGGCGCGGTA,0.391
9,TGAATCGCTGTA,-0.618
10,TGAACTCGGGTA,-0.618
11,TGACACTTGGTT,0.395
12,TGAACTACCGTA,-0.334
13,TGAATCCGGGTA,-1.16
14,TGATGCGGTGTA,0.000801
15,TGATAGGGCGTA,-1.06
16,TGACCGCATGTA,3.27
17,TGAAACCCGGTA,-0.543
18,TGACGATCAGTA,-0.426
19,TGATATCTAGTA,-1.05
20,TGAGACAAGGTA,-0.681
21,TGAAAACAGGTA,-0.534
22,TGATTTCGCGTA,-0.735
23,TGAGATTGAGTA,-1.04
24,TGACTTCATGTA,0.0412

row,Sequence,binding signal (log2 normalized fluorescence)
1,TGACCTTGTGTA,1.29
2,TGCGCCGTGGTA,1.16
3,TGAAGTCTAGTA,-1.27
4,TGAGATAGAGTA,-1.16
5,TGACTTGCAGTA,-0.18
6,TGACCTGCTGTA,0.214
7,TGATATCTCGTA,-0.983
8,TGAATATGCGTA,-0.0985
9,TGAACCTTAGTA,-0.553
10,TCTCTGAATGAT,-0.7
11,TGAGAATCCGTA,-1.3
12,TGATCCTAGGTA,-0.991
13,TGAACTTTCGTA,-0.635
14,TGACGTAGGGTA,-0.61
15,TGAGTGTCGGTA,-0.348
16,TGCTCCGTGGTA,0.561
17,TGATCATAAGTA,0.184
18,TGACAAGTGGTC,0.772
19,ATTTACAGGCTA,0.204
20,TGATTACCGGTA,-0.948
21,TGATTCGGCGTA,-1.09
22,TGAAATGTCGTA,-0.485
23,TGAACGTGCGTA,2.46
